Reference: US6987112B2, “Organic compound having cyano group and insecticides/miticides” (Nippon Soda Co., Ltd., priority 2000, dated 2006)

Test system: two-spotted spider mite having acquired resistance to organophosphorous insecticides
Assay: Effects on two-spotted spider mite (spray on adult females on French bean leaves)
Conditions: Tetranychus urticae, in Phaseolus vulgaris, read-out: percentage mortality

`Cn1nc(C(F)(F)F)c(C(O)=C(C#N)Oc2ccc(Cl)cc2)c1Cl` [Compound No. 3-8, β-(5-chloro-1-methyl-3-trifluoromethylpyrazole-4-yl)-α-(4-chlorophenoxy)-β-hydroxyacrylonitrile] showed a mortality at 125 ppm of 100%.

`Cn1nc(C(F)(F)F)c(C(OC(=O)C(C)(C)C)=C(C#N)Oc2ccc(Cl)cc2)c1Cl` [Compound No. 3-9, β-(5-chloro-1-methyl-3-trifluoromethylpyrazole-4-yl)-α-(4-chlorophenoxy)-β-pivaloyloxyacrylonitrile] showed a mortality at 125 ppm of 100%.

Compound `Cc1cc(Cl)ccc1N=CN(C)C` [chlordimeform, reference compound] has a mortality at 125 ppm of 13%.
